From patent US20220031657A1 (NOVARTIS AG, priority 2017, published 2022)

Tested on: D538G ER mutant MCF-7 xenograft
Test: D538G ER mutant MCF-7 breast cancer model in NSG mice
Conditions: LSZ102 80 mg/kg daily; fulvestrant 5 mg/mouse weekly

Structure (SMILES): C[C@]12CC[C@@H]3c4ccc(O)cc4C[C@@H](CCCCCCCCC[S+]([O-])CCCC(F)(F)C(F)(F)F)[C@H]3[C@@H]1CC[C@@H]2O (stereo partly shown) [Fulvestrant]
- anti-tumor effect in words: also active
